{"source": "PubChem BioAssay AID1794842", "about": "(National Center for Advancing Translational Sciences (NCATS), 2023)", "note": "Hit rate of the full screen: of about 2,800 compounds, fewer than 10 were called active. Calls follow the shape of the dose curve; as a rule, active = well fitted curve in the direction sought with a large enough effect; inconclusive = small, poorly fitted or top-dose-only effect, or another doubt; inactive = no such curve, though single readings can be large or run the other way. Some of the results follow.", "data": [{"target": "Metallo-beta-lactamase type 2 (Klebsiella pneumoniae) (UniProt C7C422)", "sequence (C7C422 whole entry, looked up)": "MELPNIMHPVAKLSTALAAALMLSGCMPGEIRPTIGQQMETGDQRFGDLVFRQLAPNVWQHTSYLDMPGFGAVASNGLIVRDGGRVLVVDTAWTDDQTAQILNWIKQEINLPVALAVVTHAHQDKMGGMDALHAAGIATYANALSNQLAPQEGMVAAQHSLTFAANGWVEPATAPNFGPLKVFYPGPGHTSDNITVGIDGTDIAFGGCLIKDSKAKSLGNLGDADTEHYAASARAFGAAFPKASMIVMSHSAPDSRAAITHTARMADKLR", "test": "qHTS to identify inhibitors of the New Delhi Metallo-beta-lactamase (NDM): Meropenem screen against the machine-based learning selections; also: % of control where 0% means no effect.", "conditions": "Purified NDM-1, meropenem hydrolysis, absorbance 300 nm; at 38.4 µM (top of the series) unless noted", "in_short": "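Hydrolysis by 2 nM NDM-1 was followed by absorbance after >30 min compound preincubation in HEPES pH 7.0 buffer with 1 uM Zn2SO4. For nitrocefin (16.7 uM, 15 min, 485 nm) and meropenem (50 uM, 30 min, 300 nm), each substrate ran on separate plates.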", "values": [{"smiles": "O=C(Nc1cccnc1)N1CCOC[C@H](Oc2ccccc2)C1", "activity change, negative = inhibition": "inactive: 2.3% [at 57.5 µM]"}, {"smiles": "COC[C@H]1C[C@@H](NCc2nccs2)[C@H](O)[C@@H]1O", "activity change, negative = inhibition": "inactive: 45.4% [at 57.5 µM]"}, {"smiles": "Cc1cc(=O)n(CC(=O)Nc2cccc(F)c2)c(N2CCc3ccccc3C2)n1", "activity change, negative = inhibition": "inactive: 1.45%"}, {"smiles": "O=S(=O)(c1cccs1)N1CCC(n2cnnc2-c2ccccc2)CC1", "activity change, negative = inhibition": "inactive: -0.554%"}, {"smiles": "O=C(c1cc2ccccc2[nH]1)N1CCNc2cnc(Nc3ccccc3)nc2C1", "activity change, negative = inhibition": "inactive: 13% [at 57.5 µM]"}, {"smiles": "Cc1ccc(F)c(C(=O)N[C@H](Cc2ccccc2)C2CC(O)C2)c1Cl", "note": "(stereo not given in full)", "activity change, negative = inhibition": "inactive: 0.198%"}, {"smiles": "Nc1cc(N2CC[C@@H](N3CCN(CCc4ccccc4)CC3)[C@H](O)C2)nc(N)n1", "activity change, negative = inhibition": "inactive: -0.875%"}, {"smiles": "Cn1ccnc1CN1C(=O)CO[C@H](c2ccc(NC(=O)CC(C)(C)C)cc2)[C@H]1CO", "activity change, negative = inhibition": "inactive: 0.61% [at 57.5 µM]"}, {"smiles": "O=C(NCC1(O)CCCCC1)C1CCN(c2nc(-c3ccccc3)nc3c2CCC3)CC1", "activity change, negative = inhibition": "inactive: -4.27%"}, {"smiles": "CCN(C)C(=O)Cn1ncc(N2CCOC(CCN)C2)cc1=O", "note": "(stereo not given)", "activity change, negative = inhibition": "inactive: 41%"}, {"smiles": "COC(=O)[C@H](Cc1ccc(OC)cc1)NC(=O)[C@H]1CN(C(=O)c2ccc(N(C)C)cc2)CCN1C(=O)C1CCCCC1", "activity change, negative = inhibition": "inactive: 7.71%"}, {"smiles": "C=CCC1(CO)CCCN(C(=O)c2cccc(N3CCNC3=O)c2)C1", "note": "(stereo not given)", "activity change, negative = inhibition": "inactive: 0.89%"}, {"smiles": "CN1c2cccnc2CN(Cc2cccc(Cl)c2)CC[C@H]1CO", "activity change, negative = inhibition": "inactive: 0.122% [at 57.5 µM]"}, {"smiles": "COc1ccc(-c2ccnc(N[C@H]3CO[C@H]4[C@@H]3OC[C@H]4OCC(N)=O)n2)cc1", "activity change, negative = inhibition": "inactive: 6.67% [at 57.5 µM]"}, {"smiles": "Fc1cccc(CN2CCC(Cc3nc(-c4ccncc4)n[nH]3)C2)c1", "note": "(stereo not given)", "activity change, negative = inhibition": "inactive: 1.5%"}, {"smiles": "O=C(NCc1ccc(-c2cnc3c(Oc4ccccc4)nccn23)cc1)c1cccc(O)c1", "activity change, negative = inhibition": "inactive: 4.69% [at 57.5 µM]"}, {"smiles": "CCOc1cc(=O)n2c(c1C(=O)Nc1ccc(F)c(C)c1)CCCC2", "activity change, negative = inhibition": "inactive: 1.14%"}, {"smiles": "CC(C)CN1CC[C@H](c2nc3ncccc3[nH]2)C1", "activity change, negative = inhibition": "inactive: -0.0731% [at 76.7 µM]"}, {"smiles": "CCOc1cc(CN2CCC(C)(c3noc(C4CCOCC4)n3)CC2)ccc1O", "activity change, negative = inhibition": "inactive: -0.39%"}, {"smiles": "O=C(Nc1ccc(F)cc1)N1C[C@@H]2OCC(=O)N(Cc3ccc(OC(F)(F)F)cc3)[C@@H]2C1", "activity change, negative = inhibition": "inactive: -0.897%"}, {"smiles": "COc1ccc(-c2ccc3nnc(CNC(=O)Cc4cccc(F)c4)n3n2)cc1", "activity change, negative = inhibition": "inactive: 3.14%"}, {"smiles": "Cc1ccc(S(=O)(=O)N2C[C@@H]3OCC(=O)N(Cc4ccc(F)cc4)[C@@H]3C2)cc1", "activity change, negative = inhibition": "inactive: 0.307% [at 57.5 µM]"}, {"smiles": "CCCCCC(=O)N[C@H]1C[C@@H](Cc2cc(CN3CCOCC3)on2)C1(C)C", "activity change, negative = inhibition": "inactive: 0.0274% [at 57.5 µM]"}, {"smiles": "c1ccc(CCCc2noc(-c3ccc(NCc4ccccn4)nc3)n2)cc1", "activity change, negative = inhibition": "inactive: 62.3%"}, {"smiles": "Cc1noc2c(N3CCOCC3)cc(-c3cccnc3)nc12", "activity change, negative = inhibition": "inactive: 5.99% [at 57.5 µM]"}, {"smiles": "Nc1nc(CCC(=O)N2CCn3nc(C(O)c4ccccc4)cc3C2)cs1", "note": "(stereo not given)", "activity change, negative = inhibition": "inactive: 3.24%"}, {"smiles": "COCCN1C(=O)CO[C@H]2CN(C(=O)c3ccc(F)cc3)C[C@H]21", "activity change, negative = inhibition": "inactive: 7.39% [at 57.5 µM]"}, {"smiles": "O=C(C1CC2(CCNCC2)CN1)N1CCC(c2nc3ccccc3[nH]2)CC1", "note": "(stereo not given)", "activity change, negative = inhibition": "inactive: 35.6%"}, {"smiles": "COc1ccc(NC(=O)Cn2cccc2-c2nc(-c3ccccc3)no2)cc1", "activity change, negative = inhibition": "inactive: 4.84%"}, {"smiles": "CC1=C[C@@H](CNC(=O)COc2ccccc2)[C@H](C(C)C)C[C@H]1Cc1nc2ccncc2[nH]1", "activity change, negative = inhibition": "inactive: 52.4% [at 57.5 µM]"}, {"smiles": "O=C(NC[C@H]1O[C@@H](CC(=O)N2CCCC2)[C@H](O)[C@@H]1O)c1cccc(F)c1", "activity change, negative = inhibition": "inactive: 46.9% [at 57.5 µM]"}, {"smiles": "O=C(NCc1nnc2ccc(-c3ccc(F)cc3)nn12)c1ccoc1", "activity change, negative = inhibition": "inactive: 2.03%"}, {"smiles": "Cn1c(CNCC2(COc3cccnc3)C[C@@H](O)[C@@H](O)C2)nc2ccccc21", "note": "(stereo not given in full)", "activity change, negative = inhibition": "inactive: 28.6%"}, {"smiles": "COc1ccc(CCCNC(=O)c2ccc(N3CCC(N(C)C)C3)nc2)cc1", "note": "(stereo not given)", "activity change, negative = inhibition": "inactive: -2.89%"}, {"smiles": "COc1cccc(CN[C@@H]2CCC[C@@H](C(=O)NCc3cc(C)on3)CC(=O)N(C)C2)c1", "activity change, negative = inhibition": "inactive: 1.44% [at 57.5 µM]"}, {"smiles": "CC(=O)NC1(C)CN(Cc2ccc(-c3cccc(C(F)(F)F)c3)nc2)C1", "activity change, negative = inhibition": "inactive: 0.162% [at 57.5 µM]"}, {"smiles": "COCCNC(=O)[C@H]1CCC[C@H]1NC(=O)c1ccc(OC)cc1", "activity change, negative = inhibition": "inactive: 0.0448%"}, {"smiles": "COCCNC(=O)[C@@H]1CCC[C@@H](NC(=O)NC2(c3ccccc3)CCOCC2)CN(C)C(=O)C1", "activity change, negative = inhibition": "inactive: 5.27%"}, {"smiles": "Cn1nc(C2CCN(C(=O)c3cnccn3)CC2)c2c1CCOC2", "activity change, negative = inhibition": "inactive: 0.813%"}, {"smiles": "COCCNc1ncc(-c2cccc(O)c2)c2c1OCC2", "activity change, negative = inhibition": "inactive: 13.6% [at 76.7 µM]"}]}]}
